Experimental findings from PMC4215718 are described below.

By UniProt entry, the sequences of proteins in these tests, tags left out.
UniProt Q13409: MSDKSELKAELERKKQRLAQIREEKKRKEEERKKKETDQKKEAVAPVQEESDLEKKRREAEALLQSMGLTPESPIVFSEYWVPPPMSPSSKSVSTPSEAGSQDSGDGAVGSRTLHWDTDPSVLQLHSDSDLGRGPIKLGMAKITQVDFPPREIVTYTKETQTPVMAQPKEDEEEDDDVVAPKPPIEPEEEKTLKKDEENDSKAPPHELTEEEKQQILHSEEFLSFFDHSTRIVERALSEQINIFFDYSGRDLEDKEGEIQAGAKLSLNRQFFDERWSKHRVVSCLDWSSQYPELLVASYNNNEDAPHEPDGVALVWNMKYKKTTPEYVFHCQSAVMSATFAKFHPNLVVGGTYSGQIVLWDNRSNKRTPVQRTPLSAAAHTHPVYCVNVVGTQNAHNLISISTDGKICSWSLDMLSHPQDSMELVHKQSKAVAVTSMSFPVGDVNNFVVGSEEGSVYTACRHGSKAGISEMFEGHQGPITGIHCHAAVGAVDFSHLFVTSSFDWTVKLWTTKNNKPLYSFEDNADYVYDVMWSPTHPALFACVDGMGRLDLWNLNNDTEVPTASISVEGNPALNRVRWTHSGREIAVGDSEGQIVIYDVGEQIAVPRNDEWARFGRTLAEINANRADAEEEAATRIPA
UniProt P63172: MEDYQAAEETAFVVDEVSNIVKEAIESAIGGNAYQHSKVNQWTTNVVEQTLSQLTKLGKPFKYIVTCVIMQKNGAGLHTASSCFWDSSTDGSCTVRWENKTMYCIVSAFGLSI
UniProt Q13561: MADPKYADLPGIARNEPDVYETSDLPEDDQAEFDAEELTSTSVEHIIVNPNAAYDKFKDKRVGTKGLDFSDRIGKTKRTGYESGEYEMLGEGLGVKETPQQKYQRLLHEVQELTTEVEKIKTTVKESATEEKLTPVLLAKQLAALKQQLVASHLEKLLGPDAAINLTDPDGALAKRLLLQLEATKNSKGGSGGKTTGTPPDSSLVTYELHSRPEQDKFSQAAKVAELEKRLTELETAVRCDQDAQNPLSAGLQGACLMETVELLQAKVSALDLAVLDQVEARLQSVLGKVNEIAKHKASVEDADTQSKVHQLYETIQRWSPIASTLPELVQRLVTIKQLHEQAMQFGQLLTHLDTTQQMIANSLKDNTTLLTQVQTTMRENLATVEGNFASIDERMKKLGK
UniProt Q8WVS4: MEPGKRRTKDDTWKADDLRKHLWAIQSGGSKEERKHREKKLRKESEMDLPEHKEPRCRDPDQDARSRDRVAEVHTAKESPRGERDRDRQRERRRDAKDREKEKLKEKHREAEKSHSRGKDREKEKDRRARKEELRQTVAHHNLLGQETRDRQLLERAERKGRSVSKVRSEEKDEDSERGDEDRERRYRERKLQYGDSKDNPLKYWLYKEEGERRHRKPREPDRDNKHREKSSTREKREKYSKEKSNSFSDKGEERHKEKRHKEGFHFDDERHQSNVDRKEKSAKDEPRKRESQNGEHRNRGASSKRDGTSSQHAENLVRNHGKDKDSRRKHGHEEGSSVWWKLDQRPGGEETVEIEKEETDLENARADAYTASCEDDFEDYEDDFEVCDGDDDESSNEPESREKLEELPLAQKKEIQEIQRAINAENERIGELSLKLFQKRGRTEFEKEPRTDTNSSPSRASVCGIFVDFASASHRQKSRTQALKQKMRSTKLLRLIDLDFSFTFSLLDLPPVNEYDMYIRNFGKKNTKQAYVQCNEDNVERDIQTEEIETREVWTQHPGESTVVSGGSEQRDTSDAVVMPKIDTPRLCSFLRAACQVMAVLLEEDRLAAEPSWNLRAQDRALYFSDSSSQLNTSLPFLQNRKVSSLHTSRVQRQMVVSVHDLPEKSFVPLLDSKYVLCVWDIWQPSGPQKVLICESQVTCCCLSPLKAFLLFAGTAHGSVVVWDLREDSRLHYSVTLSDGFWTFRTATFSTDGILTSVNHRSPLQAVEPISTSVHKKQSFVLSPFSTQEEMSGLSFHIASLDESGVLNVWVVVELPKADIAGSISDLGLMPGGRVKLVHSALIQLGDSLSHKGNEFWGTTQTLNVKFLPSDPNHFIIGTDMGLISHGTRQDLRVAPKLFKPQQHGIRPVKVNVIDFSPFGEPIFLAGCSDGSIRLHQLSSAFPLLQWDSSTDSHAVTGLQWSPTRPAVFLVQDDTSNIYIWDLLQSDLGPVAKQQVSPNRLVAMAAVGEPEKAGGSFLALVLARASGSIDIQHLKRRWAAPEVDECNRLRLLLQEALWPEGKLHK
UniProt P04406: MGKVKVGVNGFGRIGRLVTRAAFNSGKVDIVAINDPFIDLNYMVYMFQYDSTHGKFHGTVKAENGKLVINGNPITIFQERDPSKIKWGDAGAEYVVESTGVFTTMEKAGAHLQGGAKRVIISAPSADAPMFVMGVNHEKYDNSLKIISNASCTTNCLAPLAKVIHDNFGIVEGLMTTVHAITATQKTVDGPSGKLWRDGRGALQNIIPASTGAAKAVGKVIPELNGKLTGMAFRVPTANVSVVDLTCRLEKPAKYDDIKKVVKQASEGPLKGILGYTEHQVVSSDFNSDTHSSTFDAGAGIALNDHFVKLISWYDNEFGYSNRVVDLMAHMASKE
UniProt Q8WW35: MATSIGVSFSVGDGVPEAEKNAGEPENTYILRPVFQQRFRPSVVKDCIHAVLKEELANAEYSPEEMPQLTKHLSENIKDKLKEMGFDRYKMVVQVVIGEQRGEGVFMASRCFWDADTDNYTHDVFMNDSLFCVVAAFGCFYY

Results are given in words; binding and its absence hold for the method and conditions named. In cells and extracts the contact can be indirect. Some results given as binding are weak or reduced against the parent protein; the word gives no strength. For some of these results: Tags and fused reporters may be left off the sequences shown.

To fix the notation:
B1: NudCD3 (protein, UniProt Q8IVD9 1-361)
chain: METGAAELYDQALLGILQHVGNVQDFLRVLFGFLYRKTDFYRLLRHPSDRMGFPPGAAQALVLQVFKTFDHMARQDDEKRRQELEEKIRRKEEEEAKTVSAAAAEKEPVPVPVQEIEIDSTTELDGHQEVEKVQPPGPVKEMAHGSQEAEAPGAVAGAAEVPREPPILPRIQEQFQKNPDSYNGAVRENYTWSQDYTDLEVRVPVPKHVVKGKQVSVALSSSSIRVAMLEENGERVLMEGKLTHKINTESSLWSLEPGKCVLVNLSKVGEYWWNAILEGEEPIDIDKINKERSMATVDEEEQAVLDRLTFDYHQKLQGKPQSHELKVHEMLKKGWDAEGSPFRGQRFDPAMFNISPGAVQF
B2: LIS1 (protein, UniProt P43034 1-410)
chain: MVLSQRQRDELNRAIADYLRSNGYEEAYSVFKKEAELDVNEELDKKYAGLLEKKWTSVIRLQKKVMELESKLNEAKEEFTSGGPLGQKRDPKEWIPRPPEKYALSGHRSPVTRVIFHPVFSVMVSASEDATIKVWDYETGDFERTLKGHTDSVQDISFDHSGKLLASCSADMTIKLWDFQGFECIRTMHGHDHNVSSVAIMPNGDHIVSASRDKTIKMWEVQTGYCVKTFTGHREWVRMVRPNQDGTLIASCSNDQTVRVWVVATKECKAELREHEHVVECISWAPESSYSSISEATGSETKKSGKPGPFLLSGSRDKTIKMWDVSTGMCLMTLVGHDNWVRGVLFHSGGKFILSCADDKTLRVWDYKNKRCMKTLNAHEHFVTSLDFHKTAPYVVTGSVDQTVKVWECR
B3: endogenous WDR34, Q96EX3 1-536 (protein)
chain: MATRAQPGPLSQAGSAGVAALATVGVASGPGPGRPGPLQDETLGVASVPSQWRAVQGIRWETKSCQTASIATASASAQARNHVDAQVQTEAPVPVSVQPPSQYDIPRLAAFLRRVEAMVIRELNKNWQSHAFDGFEVNWTEQQQMVSCLYTLGYPPAQAQGLHVTSISWNSTGSVVACAYGRLDHGDWSTLKSFVCAWNLDRRDLRPQQPSAVVEVPSAVLCLAFHPTQPSHVAGGLYSGEVLVWDLSRLEDPLLWRTGLTDDTHTDPVSQVVWLPEPGHSHRFQVLSVATDGKVLLWQGIGVGQLQLTEGFALVMQQLPRSTKLKKHPRGETEVGATAVAFSSFDPRLFILGTEGGFPLKCSLAAGEAALTRMPSSVPLRAPAQFTFSPHGGPIYSVSCSPFHRNLFLSAGTDGHVHLYSMLQAPPLTSLQLSLKYLFAVRWSPVRPLVFAAASGKGDVQLFDLQKSSQKPTVLIKQTQDESPVYCLEFNSQQTQLLAAGDAQGTVKVWQLSTEFTEQGPREAEDLDCLAAEVAA

In the first assay the target is mGFP–WDR34 (human) (UniProt Q96EX3). As to the kind of experiment: co-IP; GFP-trap of lysates of serum-starved (24 h) RPE1 cells stably expressing mGFP or mGFP–WDR34; 10 mM Tris-HCl pH 7.4, 50 mM NaCl, 0.5 mM EDTA, 1.0% IGEPAL; 90 min at 4°C; immunoblot of input, unbound and bound fractions.
Details: not given
On to “dynein-1 intermediate chain, IC74 (from UniProt Q13409 1-638)”, for which the binding result was “no binding”.

Regarding Tctex-1 (from UniProt P63172 1-113), the binding entry is reported as “binds”. As for “p50^dynamitin (from UniProt Q13561 1-401)”, the binding entry was “no binding”. For the molecule WDR60 (from UniProt Q8WVS4 1-1066), the binding result is recorded as “binds”. As to GAPDH (from UniProt P04406 1-335), the binding result is on record as “no binding”. Regarding TCTEX1D2 (from UniProt Q8WW35 1-142), the binding result is given as “binds”. As to “p150^Glued (from UniProt Q14203-1 1-1278)”, the binding result is reported as “no binding”. Consider B1, for which the binding entry was “binds”. Still for that read-out and setting: to B2 belongs “no binding”.

For a further assay, the target named is T1, mGFP–WDR34 (human), Q96EX3.
T1 chain: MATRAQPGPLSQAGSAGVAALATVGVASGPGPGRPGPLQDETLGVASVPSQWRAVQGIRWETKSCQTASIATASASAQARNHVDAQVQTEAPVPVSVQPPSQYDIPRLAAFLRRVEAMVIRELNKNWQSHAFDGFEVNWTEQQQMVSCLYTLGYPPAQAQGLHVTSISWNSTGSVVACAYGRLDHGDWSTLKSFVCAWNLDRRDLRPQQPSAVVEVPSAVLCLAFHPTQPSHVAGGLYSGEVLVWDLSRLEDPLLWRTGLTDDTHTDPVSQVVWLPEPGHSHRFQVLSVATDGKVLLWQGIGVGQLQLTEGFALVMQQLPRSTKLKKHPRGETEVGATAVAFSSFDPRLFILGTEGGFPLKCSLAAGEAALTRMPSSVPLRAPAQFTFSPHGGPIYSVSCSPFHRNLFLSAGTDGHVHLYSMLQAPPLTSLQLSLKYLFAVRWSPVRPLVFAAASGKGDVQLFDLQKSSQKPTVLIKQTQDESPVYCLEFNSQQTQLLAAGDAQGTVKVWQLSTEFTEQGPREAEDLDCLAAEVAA
The description is as above. The settings on record: remark: other sources report otherwise.
For B3, the binding result is reported as “no binding”.
